# From PMC4336329 (PLoS ONE, 2015)
# Out of some 310,000 compounds screened, about 14,000 (4.5%) showed an effect of 50% or more. The effect is printed as a negative number. Some of the results follow.
# Target: human ether-à-go-go-related gene (hERG) potassium channel (human, UniProt Q12809)
# Assay: primary screen, population patch clamp on CHO cells stably expressing hERG
# 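Note: peak tail current of the secondary pulse compared with the same well before compound.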
# Chain of human ether-à-go-go-related gene (hERG) potassium channel (Q12809 whole entry, looked up): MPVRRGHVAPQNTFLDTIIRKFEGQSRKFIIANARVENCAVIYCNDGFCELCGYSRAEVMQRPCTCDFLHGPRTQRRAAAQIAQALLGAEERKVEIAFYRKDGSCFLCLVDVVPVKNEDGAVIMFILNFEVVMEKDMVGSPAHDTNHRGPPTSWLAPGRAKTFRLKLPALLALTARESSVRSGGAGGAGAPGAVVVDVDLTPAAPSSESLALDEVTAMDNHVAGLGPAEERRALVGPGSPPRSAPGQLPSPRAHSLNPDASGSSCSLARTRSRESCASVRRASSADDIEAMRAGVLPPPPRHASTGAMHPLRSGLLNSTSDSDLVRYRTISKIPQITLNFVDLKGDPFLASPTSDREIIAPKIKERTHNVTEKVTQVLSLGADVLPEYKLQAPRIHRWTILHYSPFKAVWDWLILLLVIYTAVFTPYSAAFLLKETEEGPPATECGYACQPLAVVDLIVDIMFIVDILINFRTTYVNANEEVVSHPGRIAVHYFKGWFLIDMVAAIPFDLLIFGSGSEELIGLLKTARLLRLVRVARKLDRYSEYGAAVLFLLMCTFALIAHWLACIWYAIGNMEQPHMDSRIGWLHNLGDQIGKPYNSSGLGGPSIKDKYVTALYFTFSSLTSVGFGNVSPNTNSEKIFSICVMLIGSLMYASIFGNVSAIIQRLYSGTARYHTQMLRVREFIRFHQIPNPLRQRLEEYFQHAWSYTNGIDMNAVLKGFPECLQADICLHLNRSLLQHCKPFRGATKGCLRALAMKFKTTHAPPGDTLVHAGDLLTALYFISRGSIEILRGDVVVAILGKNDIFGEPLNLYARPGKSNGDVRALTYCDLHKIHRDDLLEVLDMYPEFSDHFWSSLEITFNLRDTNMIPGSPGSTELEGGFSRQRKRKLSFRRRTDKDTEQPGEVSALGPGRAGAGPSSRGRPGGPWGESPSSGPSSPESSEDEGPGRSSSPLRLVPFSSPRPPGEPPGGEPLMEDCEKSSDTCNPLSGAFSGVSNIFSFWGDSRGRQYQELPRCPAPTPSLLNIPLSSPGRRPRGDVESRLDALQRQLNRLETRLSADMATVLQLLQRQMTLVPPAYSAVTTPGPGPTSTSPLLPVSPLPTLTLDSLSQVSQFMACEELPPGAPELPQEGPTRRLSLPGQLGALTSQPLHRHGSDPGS
row,Structure (SMILES),"hERG current change (%, negative = inhibition) at 10uM"
1,CC(C)[C@H](NC(=O)c1ccccc1Br)C(=O)OCc1nc2ccsc2c(=O)[nH]1,-30.8%
2,NC(N)=O,16%
3,O=C(OCc1ccc2c(c1)OCO2)c1cccc(S(=O)(=O)N2CCCCC2)c1,-6.15%
4,C=CCn1c(SCC(=O)Nc2ccccc2C)nc(O)cc1=O,5.99%
5,Cc1ccc(NC(=O)c2cccc(S(=O)(=O)N3CCN(c4ccccc4)CC3)c2)nc1,-1.19%
6,Cc1cc(C)cc(Nc2ncc3c(n2)CC(c2ccco2)CC3=O)c1 (stereo not drawn),-23.3%
7,C(=C\c1nc2ccccc2[nH]1)/c1ccccc1,-31.2%
8,COc1ccccc1/C=N/NC(=O)c1ccc(C)nc1,13.4%
9,CC1(C)CC(=O)C2=C(C1)Nc1ccccc1NC2c1cccs1 (stereo not drawn),5.74%
10,COc1ccc(CNC(=O)CCn2c(=O)oc3ccccc32)c(OC)c1,0.0303%
11,Cc1ccc(C)c(NC(=O)COC(=O)CNC(=O)c2ccccc2Cl)c1,8.05%
12,COc1ccc(Sc2nnc(-c3ccccc3)cc2C#N)cc1,17.5%
13,CCn1c(C)nc2c(=O)oc3ccccc3c21,-9.57%
14,Cc1ccc(Oc2ccccc2NC(=O)CN2C(=O)NC3(CCCC3)C2=O)cc1,11%
15,COc1cccc(C(=O)N(Cc2nc(-c3cccc(C)c3)no2)C(C)C)c1OC,-4.61%
16,Cc1nnc(SCC(=O)Nc2ccc3c(c2)COC3=O)n1-c1ccccc1,-10.1%
17,COc1ccccc1NC(=O)C1=C(C)NC2=C(C(=O)CC(c3ccc(OC)c(OC)c3)C2)C1c1coc2ccccc2c1=O (stereo not drawn),-0.338%
18,C=CCc1cccc(C=Nc2ccc(Br)cc2)c1O,-4.96%
19,COc1ccc([C@H](OC)[C@@]2(Cc3ccc(O)cc3)N=C(N)N(C)C2=O)cc1,4.5%
20,O=C(NCCc1ccc(O)c(O)c1)C1COc2ccccc2O1 (stereo not drawn),31.1%
21,O=C(CCCN1C(=O)C(c2ccccc2)Oc2cccnc21)NCc1ccc(F)cc1 (stereo not drawn),1.77%
22,COc1ccc(NC(=S)N(CCCOC(C)C)C2CCN(C(C)=O)CC2)cc1Cl,-11.5%

row,Structure (SMILES),"hERG current change (%, negative = inhibition) at 10uM"
1,CC(C)Cc1nnc(NC(=O)CCC(=O)N2CCN(C3CCCC3)CC2)s1,8.3%
2,CC(C)CCNC(=O)CN(C(=O)Cn1nnc(-c2ccccc2F)n1)c1cccc2c1CCCC2,-6.84%
3,COc1ccc(NC(=O)c2ccc3c(c2)C(=O)N(CC2CCCO2)C3=O)cc1 (stereo not drawn),2.08%
4,Cc1cccc(-c2c3c(=O)n(C)c(=O)n(C)c3c3cccnn23)c1,-4.1%
5,CCOc1ccc(OCC(=O)OCn2c(SC)nnc(C)c2=O)cc1,5.27%
6,CCN=C1SC(C(=O)Nc2cccc(OCC)c2)CC(=O)N1CC (stereo not drawn),-10.6%
7,Cc1ccc(C)c(C(=O)CCC(=O)NNC(=O)Cn2nc(C)cc2C)c1,2.92%
8,CCc1nnc(NC(=O)CSc2nnc(Cc3ccccc3)n2-c2ccc(OC)cc2)s1,4.11%
9,CC(NC(=O)C(=O)NN=C1CCCCCC1)c1ccccc1 (stereo not drawn),-2.19%
10,Cc1ccc(C2=NC3(CCCCCC3)NC2=S)cc1,-7.38%
11,COc1ccc(-c2ccc(OC)c([C@H]3[C@@H]4C=CCC[C@@]4(C)C(=O)N3Cc3ccccc3)c2)cc1OC,19.6%
12,CCN(CC(=O)Nc1ccc(NC(C)=O)cc1)C(=O)CCCc1c[nH]c2ccccc12,8.72%
13,CN(C)/C=C1\Oc2ccc3ccccc3c2C1=O,22%
14,CCOC(=O)C1CCN(c2c(NCc3ccc(C(=O)N(C)Cc4ccccc4)cc3)c(=O)c2=O)CC1,-65.2%
15,NS(=O)(=O)c1ccc(NC(=O)N2c3ccccc3Sc3ccccc32)cc1,7.81%
16,COC(=O)C(C)n1cnc2c(cnn2-c2ccc(Cl)cc2)c1=O (stereo not drawn),-27.2%
17,Fc1ccc(F)c(C2=NNC(=Nc3ccccc3F)SC2)c1,24.8%
18,COc1ccc2oc(C(F)(F)C(F)(F)F)cc(=O)c2c1,3.76%
19,O=C(NCCN1CCCC1=O)C1CCC(=O)N(CCc2cccc(F)c2)C1 (stereo not drawn),9.49%
20,O=C1CC(c2ccccc2)CC(O)=C1C=Nc1ccccc1O (stereo not drawn),11.4%
21,O=C(NCC(c1cccnc1)N1CCN(c2ccccc2)CC1)C1CCCCC1 (stereo not drawn),-15.6%
22,COc1ccc(CNC(=O)C2C3C=CC4(CN(Cc5cccnc5)C(=O)C24)O3)cc1 (stereo not drawn),-16.2%

row,Structure (SMILES),"hERG current change (%, negative = inhibition) at 10uM"
1,Cc1cnc(NC(=O)Nc2ccccc2)c(C)n1,11.1%
2,COc1ccc(NC(=S)NCCCN2CCCC2=O)c(OC)c1,7.37%
3,CCOC(=O)c1c(S(=O)(=O)N2CCN(c3ccc(C(C)=O)cc3)CC2)c(C)n(C)c1C,5.77%
4,O=C(c1ccc(-n2cncn2)c([N+](=O)[O-])c1)N1CCN(S(=O)(=O)c2ccccc2F)CC1,-45.1%
5,CCS(=O)(=O)c1nc(S(=O)(=O)c2ccc(C)cc2)c(NCCCn2ccnc2)s1,-26.5%
6,Cc1c(C(=O)O)oc2c1C(O)CC(C)(C)C2 (stereo not drawn),1.64%
7,O=C(O)COc1ccccc1/C=N/NC(=O)c1cccc(S(=O)(=O)N2CCOCC2)c1,7.54%
8,COC(=O)C(C)Sc1nc(N)c(NC(=O)c2ccco2)c(=O)[nH]1 (stereo not drawn),4.02%
9,O=C(NCc1cccnc1)/C(=N\O)c1ccccc1,5.59%
10,COc1ccc(-c2nc(CS(=O)CC(=O)NCCC3=CCCCC3)c(C)o2)cc1 (stereo not drawn),-24.2%
11,CC(=O)NC1C(Oc2ccccc2C)OC(CO)C(O)C1O (stereo not drawn),14.4%
12,CCOC(=O)c1sc(C)c2c1NC1(CCCCC1)NC2=O,-19.8%
13,Cc1ccnc2nc(C(=O)OCC(=O)Nc3ccc4c(c3)OC(F)(F)O4)nn12,-49.1%
14,S=c1[nH]nc(-c2cc(-c3ccco3)[nH]n2)n1-c1cccc2ccccc12,15%
15,C/C(=N\NC(=S)NCc1ccccc1)c1ccc(Br)cc1,22.8%
16,COc1ccccc1CN1C(=O)c2cccc3cccc(c23)C1=O,4.29%
17,Cc1cc(C)cc(Nc2nc3ccccc3c(=O)[nH]2)c1,19.3%
18,CCOc1ccc(C(NC(=O)/C=C/c2ccco2)c2ccc(OC)c(OC)c2)cc1 (stereo not drawn),-2.06%
19,CCC(C)N1CC(=O)N2C(c3ccc(OC)cc3OC)c3[nH]c4ccccc4c3C[C@H]2C1=O (stereo partly drawn),-49.8%
20,COc1ccc(C2CC(c3cccs3)=NN2C(=O)c2ccccc2)cc1OC (stereo not drawn),-25.9%
21,Cc1onc(-c2ccccc2Cl)c1C(=O)NCc1ccccn1,5.34%
22,CCC(C)N1C(=O)/C(=C/c2ccc3c(c2)CCN3CCCCl)C(=O)NC1=S (stereo not drawn),18.8%

row,Structure (SMILES),"hERG current change (%, negative = inhibition) at 10uM"
1,CCn1[nH]c(=O)c(=Nc2c(C)n(C)n(-c3ccccc3)c2=O)cc1-c1ccc(Cl)cc1,-35.3%
2,Cc1cccc(N(C(=O)CCC(=O)Nc2cc(C)on2)C(C(=O)NC2CCCC2)c2cccnc2)c1 (stereo not drawn),18.2%
3,CCC(c1nnnn1CCC(C)C)N1CCC(C(N)=O)CC1 (stereo not drawn),0.376%
4,CCn1cc(C(=O)N2CCC3(CC2)OCCO3)c(=O)c2cc(S(=O)(=O)N3CCCC3)ccc21,16.8%
5,Cc1cc(C)n(Cc2ccc(C(=O)O)cc2)n1,14.3%
6,COc1ccc(C(=O)NNC(=O)C(=O)Nc2ccc(C)c(Cl)c2)cc1,15.5%
7,CC1CCN(C(=O)CCc2nnc(-c3ccccc3)o2)CC1,-5.83%
8,Cc1ccc(N2C(N)=C(C#N)C(c3ccsc3)C3=C2CC(C)(C)CC3=O)cc1 (stereo not drawn),-3.24%
9,COCCN(C(=O)c1cc2c(s1)CCC2)c1c(N)n(CC(C)C)c(=O)[nH]c1=O,0.711%
10,COC(=O)c1sccc1NC(=O)NC1CCCCC1,-11.1%
11,NC(=O)[C@H]1CC2(CC(c3cccc(NC(=O)CC(c4ccccc4)c4ccccc4)c3)=NO2)CN1C(=O)CC(c1ccccc1)c1ccccc1 (stereo partly drawn),20.9%
12,O=C(O)c1ccc(Cn2cnc3scc(-c4ccccc4)c3c2=O)cc1,20.8%
13,O=C(Nc1ccc(C#Cc2ccccc2)cc1)C1CC1,6.19%
14,COC(=O)c1ccccc1NC(=S)NC(=O)COc1ccccc1,13.4%
15,O=C(NC(=S)NN1CCCCC1c1cccnc1)c1ccc(Cl)cc1Cl (stereo not drawn),-6.98%
16,O=C(CN1CCN(Cc2ccccc2)CC1)N/N=C/c1cccs1,-22.9%
17,Cc1ccc(C)c(NC(=S)N/N=C2/CCCCc3ccccc32)c1,2.67%
18,Cc1ccc(C2CC(c3cccc(C)c3)n3ncnc3N2)cc1 (stereo not drawn),2.15%
19,Cc1cc(=O)n2nc(N3CCCC(C(=O)NC(C)c4ccccc4)C3)sc2n1 (stereo not drawn),9.64%
20,NS(=O)(=O)c1ccc(NC(=O)CSc2ccccc2)cc1,-10.8%
21,O=C(NCCCN1CCCCC1)C1CCC(=O)N1CCc1ccccc1 (stereo not drawn),22.2%
